{"source": "the supplement of paper PMC7335073", "note": "Whole data set: some 4,100 sequences, median “relative CpG methylation activity (normalised to average over all NNNCGNNN flanks)” near 0.87, cut for the highest 2% near 2.4. The list shows a part of the results."}
{"target": "DNMT3A catalytic domain (mouse) (UniProt O88508)", "experiment": "relative CpG methylation activity (normalised to average over all NNNCGNNN flanks) (relative (1 = mean)); higher = more methylation of the central CpG", "conditions": "system: in vitro, murine catalytic domain; CpG state: hemimethylated substrate pool; residues: 608-908", "summary_of_the_method": "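Murine DNMT3A or DNMT3B catalytic domain methylated pooled dsDNA substrates, each carrying a central CpG within 10 random flanking nucleotides, with 0.8 mM S-adenosyl-L-methionine in HEPES pH 7.5 buffer at 37 °C for 60 min. Proteinase K treatment, BsaI-HFv2 digestion, hairpin ligation, bisulfite conversion and two-step PCR preceded Illumina sequencing. Relative methylation activity is the average methylation of a flanking context divided by the mean across all contexts, where a context spans three bases on each side, and every experiment was repeated twice independently.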"}
{"sequence": "AGGCGCGC", "relative CpG methylation activity": 0.467}
{"sequence": "GGTCGGAC", "relative CpG methylation activity": 0.604}
{"sequence": "AGCCGTTC", "relative CpG methylation activity": 0.982}
{"sequence": "ACTCGATG", "relative CpG methylation activity": 0.513}
{"sequence": "GCTCGCAA", "relative CpG methylation activity": 1.07}
{"sequence": "CTGCGATG", "relative CpG methylation activity": 0.813}
{"sequence": "CTTCGTAA", "relative CpG methylation activity": 1.85}
{"sequence": "TCTCGTAG", "relative CpG methylation activity": 0.833}
{"sequence": "CGACGAGG", "relative CpG methylation activity": 0.271}
{"sequence": "GATCGGAA", "relative CpG methylation activity": 0.174}
{"sequence": "TAACGGAT", "relative CpG methylation activity": 0.824}
{"sequence": "AGACGGGC", "relative CpG methylation activity": 0.598}
{"sequence": "TAACGCAT", "relative CpG methylation activity": 0.689}
{"sequence": "GATCGGCA", "relative CpG methylation activity": 0.478}
{"sequence": "TGTCGTCT", "relative CpG methylation activity": 1.08}
{"sequence": "CACCGTGA", "relative CpG methylation activity": 0.394}
{"sequence": "ACCCGCAG", "relative CpG methylation activity": 0.434}
{"sequence": "TCACGCTC", "relative CpG methylation activity": 2.5}
{"sequence": "TTCCGGAT", "relative CpG methylation activity": 1.4}
{"sequence": "CGGCGTAC", "relative CpG methylation activity": 0.625}
{"sequence": "GCTCGGGG", "relative CpG methylation activity": 0.541}
{"sequence": "GCACGTTG", "relative CpG methylation activity": 0.579}
{"sequence": "TAACGAGA", "relative CpG methylation activity": 0.482}
{"sequence": "TTACGATG", "relative CpG methylation activity": 1.45}
{"sequence": "CGCCGGAA", "relative CpG methylation activity": 0.719}
{"sequence": "TGGCGGAA", "relative CpG methylation activity": 0.602}
{"sequence": "TGACGCGT", "relative CpG methylation activity": 0.486}
{"sequence": "AACCGTAA", "relative CpG methylation activity": 1.09}
{"sequence": "ACCCGCCA", "relative CpG methylation activity": 1.19}
{"sequence": "GTGCGATG", "relative CpG methylation activity": 0.795}
{"sequence": "CTACGATC", "relative CpG methylation activity": 2.4}
{"sequence": "CGGCGTAG", "relative CpG methylation activity": 0.353}
{"sequence": "ACTCGACA", "relative CpG methylation activity": 1.02}
{"sequence": "GAACGCGG", "relative CpG methylation activity": 0.208}
{"sequence": "GCCCGTAC", "relative CpG methylation activity": 1.1}
{"sequence": "CTCCGGGC", "relative CpG methylation activity": 1.49}
{"sequence": "CCCCGAGC", "relative CpG methylation activity": 1.81}
{"sequence": "GGGCGCCA", "relative CpG methylation activity": 1.15}
{"sequence": "AACCGGGC", "relative CpG methylation activity": 1.05}
{"sequence": "CACCGATA", "relative CpG methylation activity": 0.729}
{"sequence": "CGGCGTTA", "relative CpG methylation activity": 0.492}
{"sequence": "TAACGTAC", "relative CpG methylation activity": 0.748}
{"sequence": "TCCCGGAC", "relative CpG methylation activity": 1.06}
{"sequence": "CAGCGGCT", "relative CpG methylation activity": 0.413}
{"sequence": "CGGCGTGA", "relative CpG methylation activity": 0.345}
{"sequence": "CGTCGCAA", "relative CpG methylation activity": 0.741}
{"sequence": "CGTCGGCA", "relative CpG methylation activity": 0.75}
{"sequence": "GCCCGAGC", "relative CpG methylation activity": 1.7}
{"sequence": "GCTCGGTC", "relative CpG methylation activity": 1.31}
{"sequence": "CTACGGGT", "relative CpG methylation activity": 1.9}
{"sequence": "GCCCGTTA", "relative CpG methylation activity": 1.1}
{"sequence": "GACCGTCT", "relative CpG methylation activity": 1.43}
{"sequence": "CCTCGCCG", "relative CpG methylation activity": 1.68}
{"sequence": "TTCCGCAT", "relative CpG methylation activity": 1.78}
{"sequence": "AAGCGCTA", "relative CpG methylation activity": 0.729}
{"sequence": "AAGCGTAT", "relative CpG methylation activity": 0.285}
{"sequence": "ACGCGTAC", "relative CpG methylation activity": 0.804}
{"sequence": "CATCGTCT", "relative CpG methylation activity": 1.43}
{"sequence": "CAGCGCAA", "relative CpG methylation activity": 0.544}
{"sequence": "CCTCGATT", "relative CpG methylation activity": 0.766}
{"sequence": "TACCGTGT", "relative CpG methylation activity": 0.243}
{"sequence": "CGCCGTAC", "relative CpG methylation activity": 0.711}
{"sequence": "CAACGCCG", "relative CpG methylation activity": 1.12}
{"sequence": "TTACGTTT", "relative CpG methylation activity": 1.72}
{"sequence": "CCGCGATG", "relative CpG methylation activity": 0.571}
{"sequence": "CTACGCGC", "relative CpG methylation activity": 2.25}
{"sequence": "TTGCGATT", "relative CpG methylation activity": 1.05}
{"sequence": "GGTCGCAA", "relative CpG methylation activity": 0.443}
{"sequence": "CTCCGGCA", "relative CpG methylation activity": 1.32}
{"sequence": "CAGCGTAC", "relative CpG methylation activity": 0.544}
{"sequence": "CGGCGTCA", "relative CpG methylation activity": 0.855}
{"sequence": "GTTCGCAC", "relative CpG methylation activity": 1.19}
{"sequence": "CACCGTAC", "relative CpG methylation activity": 0.709}
{"sequence": "CTACGTAG", "relative CpG methylation activity": 1.55}
{"sequence": "AAGCGTCT", "relative CpG methylation activity": 0.915}
{"sequence": "ACACGTTG", "relative CpG methylation activity": 0.878}
{"sequence": "TACCGCAA", "relative CpG methylation activity": 0.763}
{"sequence": "TGCCGCCT", "relative CpG methylation activity": 1.76}
{"sequence": "CTCCGTAA", "relative CpG methylation activity": 1.82}
{"sequence": "AAGCGGAG", "relative CpG methylation activity": 0.206}
{"sequence": "CACCGCCG", "relative CpG methylation activity": 1.54}
{"sequence": "GGACGGTC", "relative CpG methylation activity": 1}
{"sequence": "TCGCGCCT", "relative CpG methylation activity": 1.7}
{"sequence": "CGGCGGTG", "relative CpG methylation activity": 0.231}
{"sequence": "TTTCGGCT", "relative CpG methylation activity": 0.887}
{"sequence": "GTTCGTCA", "relative CpG methylation activity": 1.79}
{"sequence": "GCCCGACT", "relative CpG methylation activity": 1.21}
{"sequence": "GAGCGGGT", "relative CpG methylation activity": 0.411}
{"sequence": "ATACGGTA", "relative CpG methylation activity": 1.58}
{"sequence": "TGGCGAGT", "relative CpG methylation activity": 0.53}
{"sequence": "CTTCGTTC", "relative CpG methylation activity": 1.18}
{"sequence": "TCGCGGTG", "relative CpG methylation activity": 0.556}
{"sequence": "TAGCGTAG", "relative CpG methylation activity": 0.208}
{"sequence": "TAGCGGGA", "relative CpG methylation activity": 0.263}
